No constants are given. Whether binding was seen depends on the method and setting. Binding seen in cells or lysates may run through a third protein. Some binding calls cover weakened binding; strength is not graded here.

Protein sequences, listed by entry. Tags and fused reporters are not part of them.
UniProt P97500: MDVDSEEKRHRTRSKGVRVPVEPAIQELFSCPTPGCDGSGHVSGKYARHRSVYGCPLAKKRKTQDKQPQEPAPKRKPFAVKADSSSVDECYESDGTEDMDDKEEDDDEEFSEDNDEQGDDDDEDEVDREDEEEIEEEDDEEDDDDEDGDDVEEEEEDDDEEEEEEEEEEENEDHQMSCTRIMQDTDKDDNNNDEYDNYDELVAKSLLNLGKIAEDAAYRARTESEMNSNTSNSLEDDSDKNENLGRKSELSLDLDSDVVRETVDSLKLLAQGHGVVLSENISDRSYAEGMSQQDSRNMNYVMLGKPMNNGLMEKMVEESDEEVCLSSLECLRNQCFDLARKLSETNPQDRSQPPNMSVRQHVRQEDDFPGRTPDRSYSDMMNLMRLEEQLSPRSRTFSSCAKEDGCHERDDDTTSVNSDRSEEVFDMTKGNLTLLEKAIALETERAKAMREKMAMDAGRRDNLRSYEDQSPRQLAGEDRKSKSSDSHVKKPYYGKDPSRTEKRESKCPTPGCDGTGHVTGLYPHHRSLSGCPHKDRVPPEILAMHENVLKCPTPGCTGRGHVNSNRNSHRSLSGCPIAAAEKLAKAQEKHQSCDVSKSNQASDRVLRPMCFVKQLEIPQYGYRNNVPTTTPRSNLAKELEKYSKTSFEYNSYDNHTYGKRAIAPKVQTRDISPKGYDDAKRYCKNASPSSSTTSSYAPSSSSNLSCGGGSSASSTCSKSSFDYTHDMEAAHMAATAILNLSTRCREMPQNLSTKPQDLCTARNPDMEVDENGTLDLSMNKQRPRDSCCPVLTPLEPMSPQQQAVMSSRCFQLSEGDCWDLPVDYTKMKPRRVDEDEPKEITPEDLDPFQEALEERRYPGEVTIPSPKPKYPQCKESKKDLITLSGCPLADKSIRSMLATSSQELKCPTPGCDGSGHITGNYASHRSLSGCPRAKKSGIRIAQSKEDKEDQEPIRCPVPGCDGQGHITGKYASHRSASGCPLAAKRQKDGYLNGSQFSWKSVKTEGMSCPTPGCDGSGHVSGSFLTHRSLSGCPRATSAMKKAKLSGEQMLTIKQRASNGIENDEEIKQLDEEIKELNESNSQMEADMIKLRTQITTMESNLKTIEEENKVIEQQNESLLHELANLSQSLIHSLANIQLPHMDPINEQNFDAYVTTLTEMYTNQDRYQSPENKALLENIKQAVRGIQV
UniProt Q60929: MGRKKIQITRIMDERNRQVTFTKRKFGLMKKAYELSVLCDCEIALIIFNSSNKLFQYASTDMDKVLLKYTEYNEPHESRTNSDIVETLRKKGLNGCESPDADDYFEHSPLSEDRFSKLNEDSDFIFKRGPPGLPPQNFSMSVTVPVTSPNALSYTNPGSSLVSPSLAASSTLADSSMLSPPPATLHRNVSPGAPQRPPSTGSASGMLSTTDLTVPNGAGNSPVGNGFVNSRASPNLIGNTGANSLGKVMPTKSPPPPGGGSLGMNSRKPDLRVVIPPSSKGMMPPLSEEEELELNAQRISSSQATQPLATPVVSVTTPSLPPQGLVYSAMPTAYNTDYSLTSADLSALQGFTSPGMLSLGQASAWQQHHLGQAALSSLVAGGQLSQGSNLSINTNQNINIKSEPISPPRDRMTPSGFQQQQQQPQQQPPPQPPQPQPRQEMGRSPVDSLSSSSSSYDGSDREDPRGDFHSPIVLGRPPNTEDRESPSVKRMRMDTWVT
UniProt O09106: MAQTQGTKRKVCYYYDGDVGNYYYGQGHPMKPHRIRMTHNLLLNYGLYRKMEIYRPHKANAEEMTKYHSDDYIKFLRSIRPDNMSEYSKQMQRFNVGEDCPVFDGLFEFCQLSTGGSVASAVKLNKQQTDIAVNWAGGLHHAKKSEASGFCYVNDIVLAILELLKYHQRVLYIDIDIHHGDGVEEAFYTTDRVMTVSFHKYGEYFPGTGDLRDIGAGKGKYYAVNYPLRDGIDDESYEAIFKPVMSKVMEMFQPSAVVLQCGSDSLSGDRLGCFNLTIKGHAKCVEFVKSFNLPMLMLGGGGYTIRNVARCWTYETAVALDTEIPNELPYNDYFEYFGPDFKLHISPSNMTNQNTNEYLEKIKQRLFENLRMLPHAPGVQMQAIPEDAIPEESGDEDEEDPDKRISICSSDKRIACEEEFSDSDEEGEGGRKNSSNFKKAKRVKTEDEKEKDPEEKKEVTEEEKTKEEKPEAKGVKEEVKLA
UniProt P70288: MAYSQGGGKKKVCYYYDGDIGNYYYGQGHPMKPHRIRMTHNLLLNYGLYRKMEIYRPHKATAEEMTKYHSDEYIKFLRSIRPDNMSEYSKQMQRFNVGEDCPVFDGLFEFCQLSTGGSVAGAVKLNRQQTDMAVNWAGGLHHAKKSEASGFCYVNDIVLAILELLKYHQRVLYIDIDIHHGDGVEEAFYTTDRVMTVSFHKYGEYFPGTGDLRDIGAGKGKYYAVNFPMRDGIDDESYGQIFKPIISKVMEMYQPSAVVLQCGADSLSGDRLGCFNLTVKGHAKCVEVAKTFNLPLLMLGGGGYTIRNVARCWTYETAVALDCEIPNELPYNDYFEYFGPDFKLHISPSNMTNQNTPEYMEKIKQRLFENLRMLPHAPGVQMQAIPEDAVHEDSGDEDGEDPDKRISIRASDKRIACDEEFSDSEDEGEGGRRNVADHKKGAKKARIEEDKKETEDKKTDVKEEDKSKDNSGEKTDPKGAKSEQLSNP
UniProt Q6NZM9: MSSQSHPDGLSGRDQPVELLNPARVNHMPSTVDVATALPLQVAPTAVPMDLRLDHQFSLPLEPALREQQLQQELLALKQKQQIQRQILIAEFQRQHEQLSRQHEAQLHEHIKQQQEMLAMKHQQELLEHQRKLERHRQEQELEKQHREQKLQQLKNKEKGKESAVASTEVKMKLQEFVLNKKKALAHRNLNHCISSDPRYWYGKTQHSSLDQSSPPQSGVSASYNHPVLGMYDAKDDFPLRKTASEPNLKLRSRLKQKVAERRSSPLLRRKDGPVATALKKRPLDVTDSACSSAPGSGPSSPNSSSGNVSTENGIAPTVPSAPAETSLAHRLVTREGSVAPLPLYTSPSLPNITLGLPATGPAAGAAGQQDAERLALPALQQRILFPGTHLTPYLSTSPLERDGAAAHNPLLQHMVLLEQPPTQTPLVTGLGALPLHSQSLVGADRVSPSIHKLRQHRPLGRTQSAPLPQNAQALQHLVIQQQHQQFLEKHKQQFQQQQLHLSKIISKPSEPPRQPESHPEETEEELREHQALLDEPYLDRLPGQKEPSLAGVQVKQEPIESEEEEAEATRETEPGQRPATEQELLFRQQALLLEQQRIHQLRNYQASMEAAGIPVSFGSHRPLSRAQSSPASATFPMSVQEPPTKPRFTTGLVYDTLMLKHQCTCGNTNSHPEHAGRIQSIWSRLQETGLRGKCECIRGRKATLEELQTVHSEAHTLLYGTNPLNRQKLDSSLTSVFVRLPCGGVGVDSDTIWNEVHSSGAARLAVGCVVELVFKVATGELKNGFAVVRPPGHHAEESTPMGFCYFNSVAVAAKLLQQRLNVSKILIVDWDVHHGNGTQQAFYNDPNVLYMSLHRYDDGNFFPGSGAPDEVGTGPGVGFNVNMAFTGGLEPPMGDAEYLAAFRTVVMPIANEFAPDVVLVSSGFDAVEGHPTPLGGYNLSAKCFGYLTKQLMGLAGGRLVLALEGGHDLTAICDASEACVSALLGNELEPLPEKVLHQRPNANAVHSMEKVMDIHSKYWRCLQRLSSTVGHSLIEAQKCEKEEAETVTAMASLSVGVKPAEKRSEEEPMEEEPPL

This experiment has as its target myelin transcription factor 1-like (MYT1L) (mouse (endogenous in P1 cortex)) (UniProt P97500). Nature of the experiment: co-IP; rabbit anti-MYT1L (Proteintech 25234-1-AP) on Protein A or G Dynabeads, incubated with precleared WT C57BL/6J P1 mouse cortex lysate (150 mM NaCl, 50 mM Tris, 1% Triton X-100, protease inhibitors) at 4°C overnight; four washes with lysis buffer; immunoblot for candidate cofactors; rabbit IgG as control.

Turning to MEF2A (from UniProt Q60929 1-498), the binding result is recorded as “no binding”.

Regarding “HDAC1 (from UniProt O09106 1-482) (enzyme)”, the binding entry is “no binding”.

In the case of “HDAC2 (from UniProt P70288 1-488) (enzyme)”, the binding entry is listed as “binds”.

On to “HDAC4 (from UniProt Q6NZM9 1-1076) (enzyme)”, for which the binding result is on record as “no binding”.

B1: SIN3B (protein, UniProt Q62141 1-1098)
chain: MAHAGSGGSAGRGFGGSRWGRSGSGGHEKLPVHVEDALTYLDQVKIRFGSDPATYNGFLEIMKEFKSQSIDTPGVIRRVSQLFHEHPDLIVGFNAFLPLGYRIDIPKNGKLNIQSPLSSQDNSHSHGDCGEDFKQMSYKEDRGQVPLESDSVEFNNAISYVNKIKTRFLDHPEIYRSFLEILHTYQKEQLHTKGRPFRGMSEEEVFTEVANLFRGQEDLLSEFGQFLPEAKRSLFTGNGSCEMNSGQKNEEKSLEHNKKRSRPSLLRPVSAPAKKKMKLRGTKDLSIAAVGKYGTLQEFSFFDKVRRVLKSQEVYENFLRCIALFNQELVSGSELLQLVSPFLGKFPELFAQFKSFLGVKELSFAPPMSDRSGDGISREIDYASCKRIGSSYRALPKTYQQPKCSGRTAICKEVLNDTWVSFPSWSEDSTFVSSKKTPYEEQLHRCEDERFELDVVLETNLATIRVLESVQKKLSRMAPEDQEKLRLDDCLGGTSEVIQRRAIHRIYGDKAPEVIESLKRNPATAVPVVLKRLKAKEEEWREAQQGFNKIWREQYEKAYLKSLDHQAVNFKQNDTKALRSKSLLNEIESVYDEHQEQHSEGRSAPSSEPHLIFVYEDRQILEDAAALISYYVKRQPAIQKEDQGTIRQLLHRFLPSLFFSQQCPGTSDDSADERDRDRDSAEPERRRPTDEKPPADASPEPPKVLDDVYSLFFANNNWYFFLRLHQTLCARLLKIYRQAQKQLLEHRREQEREQLLCEGRREKAADPAMELRLKQPSEVELEEYYPAFLDMVRSLLEGSIDPTQYEDTLREMFTIHAYIGFTMDKLVQNIARQLHHLVSDDVCLKVVELYLNEQQRGAAGGNLSSRCVRAARETSYQWKAERCMADENCFKVMFLQRRGQVIMTIELLDTEEAQTEDPVEVQHLARYVEQYVGSEGASSSSTEGFLLKPVFLQRNLKKFRRWQCEQVRAMRGEAKSSWKRLMGVESACDVDCRFRLGTHKMVFIVNSEDYMYRRGTLCRAKQVQPLVLLRHHRHFEEWHGRWLEDNVTVAAAGLVQDWLMGEEEEDMVPCKTLCETAHVHGLPVTRYRVQYSRRPASP
Consider B1, for which the binding entry is reported as “binds”.

Values taken from article PMC10234307.
